PubChem BioAssay (NCI)
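Each compound was tested at five concentrations against cells in 96-well plates for 48 hours. Abbreviation: GI50, concentration required for 50% inhibition of growth.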 Some entries of the source have several records that differ or are many. They are shown here; other results are not. An entry can have further records. The values listed for one entry are repeated measurements across runs, samples, wells, individuals or studies. What stands in brackets tells the records apart. Letters hold for one entry only.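 TGI is the concentration that stops growth completely.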

What was measured:
Assay in all cases: NCI-60 cell line screen, 48 h
[1] = test system: SF-539 CNS
[2] = test system: SK-MEL-28 melanoma
[3] = test system: UACC-62 melanoma

`CS(=O)(=O)N1CCN(Cc2cc3nc(-c4cccc5[nH]ncc45)nc(N4CCOCC4)c3s2)CC1` was tested, and the TGI [1] was > 28.1 µM [sample A, mean of 2 tests] and 2.21 µM [sample B, mean of 2 tests], the TGI [2] was > 100 µM [sample A, 1 test] and 2.08 µM [sample B, mean of 2 tests] and the GI50 [3] was 365 nM [sample A, mean of 2 tests] and 36.2 nM [sample B, 1 test].
